The campaign covered roughly 52,000 compounds. About 1,700 (3.3%) were called active. No stated cut-off is given here; in the data, active means survival mostly below about 52% (no sharp cut-off); inactive means mostly above about 56%. Some of the results follow.
test system: Wild type; test: S. aureus survival, RN4220 and DeltatarO strains – OD600, teichoic acid synthesis inhibitors, primary screen (AID 463173); details: S. aureus RN4220 wild type/DeltatarO growth, OD600, 18 h, stronger effect = lower value, screened at 18.75 µg/mL (by protocol)

Compound | survival
CCOc1ccc(/C=C/c2nc(C#N)c(NCCCN(C)C)o2)cc1 | inactive: 87%
COC(=O)c1ccccc1NC(=O)Cn1c(=O)n(CCCC(=O)NCc2ccccc2Cl)c(=O)c2ccccc21 | inactive: 97%
Cc1ccc(NC(=O)c2c(C)nn(-c3ccccc3)c2-n2cccc2)c(Cl)c1 | inactive: 78%
Cc1ccc(Cc2nc3ccccc3nc2SCC(=O)NCc2ccccc2Cl)cc1 | inactive: 128%
CCOC(=O)c1c(NC(=O)COc2ccc(C(C)(C)C)cc2)sc2c1CCCC2 | inactive: 69%
CCc1cccc(CC)c1NC(=O)Cn1nnc2sc3c(c2c1=O)CCCC3 | inactive: 143%
Cc1ccc(N2C(=O)CS(=O)(=O)C23C(=O)N(Cc2ccc(Cl)cc2)c2ccccc23)cc1C (stereo unspecified) | inactive: 68%
COCCn1c(SCC(=O)c2ccc(F)cc2)nc2cc(C(=O)NC3CCCC3)ccc2c1=O | inactive: 73%
O=C1CC(c2ccc(F)cc2F)c2cc3c(cc2N1)OCO3 (stereo unspecified) | inactive: 134%
COc1ccc(Cl)cc1NC(=O)C1CCN(S(=O)(=O)c2ccc(F)cc2)CC1 | inactive: 81%
COc1ccc(OC)c(NC(=O)Cn2c(=O)n(-c3ccc(Cl)cc3)c(=O)c3c(C)c(C)sc32)c1 | inactive: 72%
Cc1ccc(N2C(=O)CCSC23C(=O)N(Cc2ccc(F)cc2)c2ccccc23)cc1 (stereo unspecified) | inactive: 72%
CCOc1cccc(C(=O)N(Cc2ccc(F)cc2)Cc2ccco2)c1 | inactive: 87%
CC1CCN(C(=O)CSc2nnc(NC(=O)Nc3ccccc3)s2)CC1 | inactive: 89%
Cc1cccc(CC(=O)Nc2c(C(=O)Nc3cccc(F)c3)oc3ccccc23)c1 | inactive: 48%
CCOC(=O)C1CCN(C(=O)Cn2ncc3c4ccccc4n(Cc4ccccc4)c3c2=O)CC1 | inactive: 82%
Cc1ccc2c(c1)N(C(=O)CCC(=O)NCc1cccs1)CC(C)O2 (stereo unspecified) | inactive: 83%
N#CSc1ccc(NCCO)cc1C(F)(F)F | inactive: 106%
COC(=O)c1ccccc1NC(=O)Cn1c(CCC(=O)O)ccc1-c1ccc(C)cc1 | inactive: 59%

Compound | survival
CS(=O)(=O)c1ncc(Cl)c(C(=O)Nc2c(C(=O)c3ccc(Cl)cc3)oc3ccccc23)n1 | inactive: 115%
COc1cccc(-c2nc3c(C#N)c[nH]n3c2NC2CCC(C)CC2)c1 (stereo unspecified) | inactive: 40%
O=C(NCc1ccccc1)c1ncn[nH]1 | inactive: 94%
COc1ccc(CCNC(=O)c2ccc(Cn3c(SCC(=O)NCCC(C)C)nc4cc5c(cc4c3=O)OCO5)cc2)cc1OC | inactive: 129%
CC1=C(C(=O)Nc2cccnc2)C(c2ccccc2Cl)n2nc(-c3ccccc3)nc2N1 (stereo unspecified) | inactive: 64%
Cc1cc(NC(=O)CSc2ncc(C(=O)Nc3ccc(C)c(C)c3)c(=O)n2C)no1 | inactive: 73%
Cc1ccc(NC(=O)CCSc2nc(-c3ccc4c(c3)OCO4)cc(C(F)(F)F)n2)c(C)c1 | inactive: 72%
CCOc1ccccc1C(=O)NCc1ccc2c(c1)CCN2C(=O)c1ccccc1 | inactive: 81%
Cc1cccc(Nc2nc3c(S(=O)(=O)c4ccc(Br)cc4)nnn3c3ccsc23)c1C | inactive: 62%
Cc1cc(C)c2oc(-c3cccc(NC(=O)COc4ccccc4Cl)c3C)nc2c1 | inactive: 58%
Clc1cccc(-n2ncc3c(NCCCN4CCOCC4)ncnc32)c1 | inactive: 75%
O=C(Nc1ccc2oc(-c3ccc4ccccc4c3)nc2c1)c1cc(Cl)ccc1Cl | inactive: 108%
CC(=O)c1c(C)n(-c2ccc(C)cc2)c2ccc(OC(=O)COc3ccccc3)cc12 | inactive: 67%
Cc1ccc2nc(CN3CCN(S(=O)(=O)c4ccc(C)c(C)c4)CC3)oc2c1 | inactive: 82%
CN(C)c1ccc(CNC(=O)C2CCN(S(=O)(=O)c3ccc4[nH]c(=O)ccc4c3)CC2)cc1 | inactive: 78%
COc1cc(-c2ccno2)ccc1S(=O)(=O)N1CCN(c2ccccc2)CC1 | inactive: 71%
CC(C)C(=O)Nc1nnc(SCc2cc(=O)n3ccccc3n2)s1 | inactive: 117%
Cc1ccc(C2CC(=O)n3nc(-c4cccc(C)c4)nc3S2)cc1 (stereo unspecified) | inactive: 90%
CC(C)C(=O)Nc1cccc(C(=O)Nc2nnc(C(F)(F)F)s2)c1 | inactive: 52%

Compound | survival
Cc1ccc(NC(=O)CN(c2ccc(C)cc2)S(=O)(=O)c2cccc3nonc23)cc1 | inactive: 77%
CCOc1ccccc1NC(=O)CCc1c(C)nc2cc(-c3ccccc3)nn2c1C | inactive: 57%
Cc1cccc(NC(=O)c2c(NC(=O)c3ccco3)sc3c2CCC(C)C3)c1 (stereo unspecified) | inactive: 73%
COc1ccccc1N(CC(N)=O)S(=O)(=O)c1ccccc1 | inactive: 96%
O=c1[nH]cc(N=Cc2cccnc2)c(=O)[nH]1 | inactive: 112%
Cc1c2cnn(-c3ccccc3)c(=O)c2c(C)n1C(C)C(=O)NCc1cccc(Br)c1 (stereo unspecified) | inactive: 71%
CCOCCCn1c(=N)c(C(=O)NCc2ccccc2)cc2c(=O)n3ccccc3nc21 | inactive: 68%
COc1cccc(NC(=O)Cn2c(=O)n(CCc3cccc(C)c3)c(=O)c3ccccc32)c1 | inactive: 82%
CCCN(CCC)C(=O)c1nn(C)c2c1CSc1ccccc1-2 | inactive: 108%
COc1cccc(CNC(=O)c2ccc3c(c2)nc2n3CCC(C)C2)c1 (stereo unspecified) | inactive: 59%
COc1ccc(-n2nc(-c3ccc(C)cc3)c3cnc4cc(F)c(F)cc4c32)cc1 | inactive: 85%
Cc1ccc(NC(=O)Cn2nc(-c3ccccc3)nc(Cc3ccccc3)c2=O)cc1 | inactive: 68%
CCc1nc2nc(C)c(NS(=O)(=O)c3ccc(F)c(C)c3)c(=O)n2[nH]1 | inactive: 121%
Cc1ccccc1C(=O)Nc1ccccc1-c1nc(-c2ccccc2)no1 | inactive: 95%
Cc1nc(-c2cccc(F)c2)sc1CCNC(=O)C(=O)Nc1ccc2c(c1)OCCO2 | inactive: 68%
Cc1ccc(NC(=O)CSc2nc3ccccc3n2CC(=O)N(C)C2CCCCC2)cc1C | inactive: 78%
CC(C(=O)Nc1ccccc1)n1nnc2sc3c(c2c1=O)CCCC3 (stereo unspecified) | inactive: 85%
CCc1nc2ccc(NC(C)=O)cc2c(=O)n1Cc1ccccc1 | inactive: 94%

— PubChem BioAssay AID463173 (ICCB-Longwood Screening Facility, Harvard Medical School, 2010)
